# In the supplement of paper PMC10126150:
# Values marked as one replicate rest on one cluster of the flow cell; about a third of the high ones do not repeat.
# System: ATP
# Assay: switch fluorescence ratio, 500 uM ATP over buffer (Cy3 cluster intensity, sum of 5 cycles each) (fold (ratio)); higher = stronger signal-on switching upon ATP binding; sequences stand for … in TCGTCGGCAGCGTCAGATGTGTATAAGAGACAGTTTTTTTTTTTTTTTTTTTTTTTTT…TC
# Details: aptamer strand: ATP DNA aptamer (quencher-CACCTGGGGGAGTATTGCGGAGGAAGG + anchor), 100 nM annealed; ATP concentration: 500 uM; one replicate
# Outline: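 Switching-strand clusters labelled with Cy3 on a modified Illumina MiSeq flow-cell were annealed to 100 nM quencher-labelled ATP aptamer, imaged in selection buffer, and re-imaged after 15 min with 500 uM ATP at 22 °C. This was done over five cycles with NaOH stripping and re-annealing in between. The fluorescence ratio is summed target-cycle over summed buffer-cycle Cy3 intensity per cluster, averaged per switch-domain sequence, excluding clusters outside 100-1000 RFU.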
# 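Also: ATP exposure 15 min at 22 °C before imaging.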
row,Sequence,switch fluorescence ratio
1,TACTAGCCG,1.1
2,TCTGAGGGT,0.972
3,ATTATATCTA,1.02
4,ATTGGGATTA,1
5,AATCACTAAG,1.06
6,CACGGTCCAT,1.01
7,GTGGGTAACA,0.995
8,ACTTTAACGC,1.07
9,ATGAGGTCGA,0.923
10,CAGAGAGCTA,0.975
11,GGTGTTGCTG,1
12,CAGTGAACTA,1.04
13,AGGCACGAAG,0.983
14,AGTCCATAAT,1.01
15,TTCAGTAT,1.1
16,ACTGTGGCT,1.03
17,ATCGTCGGAA,1.04
18,TGTTGGGATC,1.05
19,TGATTTTG,0.988
20,GCTAGTATGG,0.969
21,CTGGGTAATC,1.18
22,GCGCGCTTAT,1.01
23,TATCCCTGTG,1.09
24,AATCTCTTGT,0.99
25,TAAGGTATCG,0.996
26,CTATTCTAGA,1

row,Sequence,switch fluorescence ratio
1,GAGGTCGACG,1.01
2,TAATGGCGGT,0.987
3,GACGCCGCGC,3.27
4,TACAATAAGT,1
5,CTTTTGGAC,1.03
6,TTGAGTCCGG,1.02
7,TATATCACGG,0.992
8,TAGTCGGTT,1
9,CGTCGCGATG,1.08
10,CATCACCGTT,1.01
11,AGGGGAATCC,1.07
12,CTTCGCGTCT,1.03
13,ACCACAAGTA,1.02
14,CCATTACCTT,1.07
15,TACTTGCCTG,0.93
16,AATGAGCGAG,1.05
17,TGCCGCAGGG,1.04
18,GTCTTTCACG,0.976
19,CTTTAGCTGT,0.973
20,TCGCTAGTCT,1.02
21,TATACTGACG,1.18
22,CGAAGAGAGA,1.01
23,AATCTTGCTT,1.04
24,GTGACTTAGA,0.998
25,GGCCCACGCT,0.996
26,CGGCTTGTAT,1.01

row,Sequence,switch fluorescence ratio
1,GGGATGTTTA,1.03
2,AAGGGATAAG,0.976
3,GGGGAGGTAC,0.943
4,GAGGTTGGTT,0.973
5,TTGCCCAGGG,1.24
6,AAAGTGATCA,0.961
7,ACTGCACTCT,1.26
8,GAGTCCTTG,1.04
9,CTGAAAATTT,0.847
10,CGAGGCGAAT,1.45
11,AGGGCAGAAT,0.988
12,AGTCATAAG,0.957
13,ACCAGACAGC,1.17
14,CACGTCGGGG,0.988
15,AATTTCGGCA,1.04
16,TATTTCAGAC,1.02
17,GGTAGCACGG,1.01
18,CACATAACCG,1.14
19,AGCGGCCCAT,0.977
20,TTTTCTCCG,1.29
21,AAAGACCCTA,0.974
22,ATGAAAGACT,1.01
23,TCCTTTCCTG,1.1
24,TCGATTTAGT,0.968
25,TCGGCATGTC,1.11
26,AGTGTGTGAT,1.01

row,Sequence,switch fluorescence ratio
1,ATGAAGTGTT,0.976
2,TTGAGCTATC,1.06
3,CATCAGCGTT,1.28
4,TGGGTAGCGT,1.05
5,AGTTATCCCA,0.997
6,TTCATAGTAG,0.951
7,CACCGGTAAT,1.15
8,GTCAAGTTTT,0.998
9,CAATACTACG,1.21
10,TCGCATTCTT,1.34
11,TAAGACACGG,1.03
12,TGGTAGTGCA,0.985
13,TGGGCGCCTG,1.08
14,ACATGGTTGT,1.01
15,CATTGTGTCG,1.1
16,ATCAGACCTA,1.08
17,ATTCACATGA,1.03
18,AAGAGCTAAT,0.977
19,CAAAGTACC,1.22
20,AGGGGGACAT,1.16
21,GCGGTATTAC,1.32
22,CATTGAGCAA,3.55
23,CCGCCAGTGT,4.3
24,CAATGATTTT,0.979
25,ACGTTTTCTT,1.02
26,AAGTTCTGCT,0.97

row,Sequence,switch fluorescence ratio
1,ACCTCGCGTA,1.03
2,TAACGCCGGC,0.941
3,CATGTAGATG,0.971
4,CTTCTCGCAC,5.59
5,AGTGGTCCAC,0.974
6,TTCGTATTA,0.992
7,ATGTCTTATT,0.945
8,TCCACCTGTA,1.15
9,ACACCCTATA,1.22
10,CCGTCCTTGT,1.02
11,TAATCCTTG,0.987
12,GACCCTAAAG,1.03
13,GGAATG,1.05
14,CACGTATATA,1.25
15,ATCGGCGTGG,1.02
16,GACAATTAAA,1.06
17,CCATATCCAC,1.03
18,GCGCATTAGT,1.27
19,TTTTAGGACG,0.992
20,GAGTTACCGA,1.03
21,ATAACCTCTG,1.04
22,CGTTCGAACT,1.01
23,CGAGCCCAGA,1.49
24,AGCCCTTCAT,1.02
25,TATAGCGA,1.04
26,TATGGAGCTA,1.21

row,Sequence,switch fluorescence ratio
1,CGGTAACAGA,1.02
2,GCGCAAAATC,2.34
3,TCTCCAACTC,1.61
4,TAGCGACTT,0.984
5,AATGAAGTCT,1.42
6,ACGGGCGACT,0.948
7,CTGTATTGAG,1
8,AATGGTCTAA,0.991
9,CCAGAGTGCG,1.08
10,GCTTTGCTAT,1.03
11,CTCTGATGGC,1.11
12,AAAACAGTCT,1.02
13,AATAGGACAT,1.04
14,AGTTGTGCTA,0.994
15,CGTGTACTGT,0.954
16,CACTGGTCGG,1.03
17,TCAATATTAC,1.13
18,AAAATTTAT,1.01
19,GGAACTTTGG,0.989
20,CGAGGTCAAA,1.21
21,ACCCATTTCA,1.06
22,GGGGCAAACT,0.96
23,TAGGGTATTC,0.958
24,GGCGGTTGTA,0.991
25,CGGGGTCACC,1.01
26,AACACGGCCC,1.04

row,Sequence,switch fluorescence ratio
1,CCTGTCTGCG,1.09
2,CGTCCTTTAC,3.24
3,AAATAGAAGT,0.958
4,GCCCTATTT,0.998
5,ATTTGGATTC,1.01
6,AAGATGGTTG,0.957
7,ACCCTGCACG,1.15
8,ATAGAGGTGC,1.02
9,GCGGCTCAAG,1.03
10,CGTGTGGAAC,0.988
11,GGGGCCTGTG,0.979
12,ACAATTATCT,1.04
13,TTTAGACCTC,1.02
14,CATCAGATGC,1.11
15,TCAATCTGAT,0.959
16,TGTTTGTCGG,0.982
17,GGATTCTACT,1.02
18,CCTGGCCCGG,1.03
19,CTTGTTTCG,0.982
20,GATGTAGCAC,1.07
21,GAGGTAAGTA,0.977
22,GGCCCCGAGG,1
23,TGAAAGTTAT,0.985
24,AACACCCGTT,0.956
25,GCATGCTTGA,1.01
26,CTGCAAAATC,3.05

row,Sequence,switch fluorescence ratio
1,GCATAGATCT,0.967
2,ATCCTCGT,0.983
3,ATGTGGTTGA,0.972
4,GGGGACAGGA,0.937
5,CGCCCCTTTG,1.12
6,CCCTAGCCAC,3.03
7,ACGTATCCCA,1.15
8,TTCCCCTATG,1.04
9,AGACACACTC,1.35
10,CGAGAAGGAG,0.964
11,CTGTAATTCA,1.01
12,CGCCCCGCCG,0.944
13,CCGCGTATTG,1.64
14,GAGCATTCCC,1.18
15,CAGGTTATTC,0.934
16,AATGTTGCAC,1.07
17,CATTCTTCGT,1
18,GGCGTTCGGG,1
19,TGAAGGTTT,0.988
